Results as given in the supplement of paper PMC12632987.
Over roughly 4,500 sequences, “median log2 fold change of GCK-ALFA target abundance (FLAG IP / Myc IP barcode read proportion)” has its median near 0.078; the lowest 2% begin near -0.6. The list shows a part of the results.

B1: GBRAP_52_6186 (protein)
chain: MREELRATVREILALVKAGKREEARALAEKLVAELSDEELKLLVEVLEEVAAAAPLEDADAVFETAEILAEAIEAAGKDEALAEDILAAAARALYKKELA
B2: GBRAP_128_3571 (protein)
chain: SHEEKLKKAEELIEKIINSDLEEARKYSEELVELIGESDEETREKIVELVLKALPKLTKEKLLVLADVLRENRPKLDPLAAEYAADIEVEALNQALELEE
B3: GBRAP_166_4920 (protein)
chain: SMEARVAAARRRLEAVIAEERADPRMTPAQITVAMADELAEILDEEEDEETRLAIVRAGLELAKAAGLDPRRLAELTAGLYGFSDEEEERVREIVEEILA
B4: GBRAP_96_7089 (protein)
chain: ELEEVKKLVKEFLEALDKDPEKARELAKELLKYPPELIAKALKELGVSDEEVAKLFRILFEEDPSKAAELIEAFTEIVSSETVVKMVEIAIELEEKREKE
B5: GBRAP_160_4611 (protein)
chain: SMKQEEFIKDIEELFEETIKMIEGETIEERANLIDVTIGEIIIEADELEVVSDESLDKIDEIRDEVVETILENPDLTDEEIKELIEEAREKIIEIVKEDE
B6: GBRAP_14_3828 (protein)
chain: MEKIREVLEEMAADLKEDFAAISPEKAAELAALVEEEIEKTLEEIEKTGDIEKALREMEERLLAGIDELLADEPEEVRATVKAAVRTEIAEALEEIDELL
B7: GBRAP_14_3784 (protein)
chain: MEAILAAAEETFAELRDILQEIAPEKAAEITALVDAALAALKARIKETGDPVAAARETFAALAAAVAALTADLPADVRARALGAVATEGANLELEVEELT
B8: GBRAP_128_3526 (protein)
chain: SVEEAKEKAKEVMEKIKNSTVEEAKAITEEFLEWLKTQTLEEVKAAADVLIENLPKLSAEKLDAVADAIDENLDKFTPEKQRELNGVRVEALNEAEEKEE
B9: GBRAP_184_5296 (protein)
chain: EVRRVTIEAETAEEAIAKIEEAAARARAEGVRLRLDLFLRNVSVEGFARIAERLAALRAEGLIVEATVVLLDEKSEEEVDRFVAIADAAGVRLVVALSDE
B10: GBRAP_11_2688 (protein)
chain: KKEKLKEGAELAEELAELLKKLLEEGVDNEELIKEAKEKLEELLKLTKEYADKASQKRTEYLYETWKELLADPENAEEYAKEALAEARVLAGDYLLEIEE
B11: GBRAP_128_3482 (protein)
chain: SVEEAVARVRELMERIKTSSLEEVKEISREIVELLGSLNDEEAEAAAEAIEEELPKLTAEKLDIIADVFEENRGTLDPYKANLVAGVAVEALNEALEKEE
B12: GBRAP_80_6812 (protein)
chain: AEERLEEALKEIAELNPELAERLERIVEDARAVGVPVEALAELAEALLELLKVNPELAEEALEELEEDLEEAIAEGDTARAEATIRVYAGQMLLEVEELE
B13: GBRAP_160_4527 (protein)
chain: MERLEEKKKLLEEAAKRAIELVKGESAEQRAVIVSMEFGSLAMEFAEDERVSDEEVDVVIDAEDELVETILANPDLTDEEIAKLIEEAVKKIIEELEKLY
B14: GBRAP_160_4723 (protein)
chain: NENIEKLAEEALKLLKEAVKLTEDLSKEEAKAMFETAAGEVLLMFSEDPNITDEMEETAAKILDELVKELVENYDASLEEKLKIVEEYIEKLKEELEKLA
B15: GBRAP_11_2670 (protein)
chain: KKEALKKALKLAKEAAKTAQKLIEEGVDNEELLKELEKLLEEIKKLAEEHLDPAYKRDVEIAEELFKKAKEDEENKLEYLKLLLASLAVLAGNLELDLDE
B16: GBRAP_128_3558 (protein)
chain: STAAAVAEVRALLDAIAASDAATAAALARRLAALIAAADPETREAIVAEILERLPELSAEHLEILADVFRAARPAADPATAEALAEIEVAALNEAEELEE
B17: GBRAP_160_4617 (protein)
chain: SSKIEELKKFVKEEFEEAKEMIEGETPEQRAAIVDVTIGEIILEAEELEVVSDESLEKIDEIGDELVETILENPDLTEEEVKELIDEAEKKIIEIIEEDE
B18: GBRAP_125_3003 (protein)
chain: AKEEAARDMREIALAAGFSESLAEELARLVLEGSVKNTLAAFALALGNEEAAELIQKLTEEEAIEVVKRLAEIARKEGKMSEEEMAKKLLEIAKEALKKQ
B19: GBRAP_184_5029 (protein)
chain: KVVEREIEAENLEELEKKLEELRKEVANSGATLIVLLDIKNPTEEMVRTALERLGEIKREGYASDVVVGFKRILSEELIDIALETADEEGVKVVLPISDE
B20: GBRAP_160_4772 (protein)
chain: SEELEKLKKEIKEIFDEHIKLLKEVPQEEALTVLRGALGEVRMEVFSSDAVSEELEEEIDKILDEAEKEAEKNKNAPVEEFIKILKEAEEKILALIESEI
B21: GBRAP_128_3466 (protein)
chain: STEEAVAWAREKMEAMKEADDEEARRLAEELAERLLTLSLEEVEAVVEEILKQLPKLSAKKLEILADVLDAARPRLSPEKAALVAEVISEALLLAEEKEE
B22: GBRAP_11_2909 (protein)
chain: KKENLEKLAKLLEELVKLLEKLIKEGVEDKELLEKALKVAKEALELAKKNLDEASVELAEELVELLEKAIEDPEKAKEYVEKALAVARVLLGEVLLEIEE
B23: GBRAP_78_6639 (protein)
chain: SIEEKLEEALELVDEAAKLALTLPPEIANEILDELVDAASHLEEAIEKGGDLEEVKEALKELKEALELIKKHNDPRLKPLEEKVKKAIELLEEIIKELEK
B24: GBRAP_83_6883 (protein)
chain: KEKIVVAGPADHIEELVEIAIDLTKNEGYEVEIEVLVRPEGIEKVLEGVERLAKAGVNTKLIIHGEGVTKEQAEELEARIKEIAKKYGVKIEVEVILDEP
B25: GBRAP_128_3555 (protein)
chain: STEEVVEEAEELLEKIKESDEEEAREYARELVRLLASVDEESREAIVKVILERLPELTVEQLEILADVFREERPKVDPDVANALAEIEVEALNVALEKEE
B26: GBRAP_184_5101 (protein)
chain: KTYEAEVEADTAEEAKAKIAEAVAEAAAAGANLNILLKGKGLSTEEIVDIVRYLGRAAKEAGIPAVTLGIDTPLSEEDADKVIAAADEAGIRVVLALSEE
B27: GBRAP_52_6036 (protein)
chain: SRERMRRLAQEIVDLAKAGDLEGARALAREAVETLSEEELRLLGEELARLAREAAPEDLDAIMEVAFILADALVEGGYDEVLADDLLARVAAAAVENLQA
B28: GBRAP_128_3422 (protein)
chain: SRAAAVARARALLEAMKTADDATAAALADELAALFASADLETAEAIAEVIRAEIPKLTAKQLDILADAFRAALPKLTPEKANIAADVIVDLLNEREELEE
B29: GBRAP_166_4924 (protein)
chain: STEELVAEARARLEAVIAEGRADPSLTPGQITAAMAYETAKLLESVEDEETKLAIVEAGLKLAKEAGLDPRRLATLTASLYGFSDEEIDKIDEITEKILA

target: GABARAP, O95166; experiment: median log2 fold change of GCK-ALFA target abundance (FLAG IP / Myc IP barcode read proportion) (log2 ratio); each designed protein is fused to an ALFA-tag nanobody in HEK293 cells to bring the named protein to FLAG-tagged glucokinase (GCK); Myc marks an untargeted standard; higher = target protein stabilised (more abundant); settings: target protein: 3xFLAG-MCP-GCK-ALFA reporter; HEK293 landing pad (RPLP)
In short: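 The readout is target abundance, the per-binder median log2 ratio of FLAG to Myc barcode read proportions. It came from HEK293 landing-pad cells carrying a recombined ALFA-nanobody-fused binder library, induced with 2 μg mL^−1 doxycycline and transfected with a plasmid for a FLAG-tagged target and a Myc-tagged standard. After 48 h, lysates were immunoprecipitated with anti-FLAG and anti-Myc, and circular RNA barcodes were reverse transcribed, amplified and sequenced. Each barcode needed a proportion of at least 10^−7 in both replicates and each binder at least 3 barcodes per replicate, a pseudocount of 10^−6 was added, and the replicates were pooled.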

Chain of GABARAP, O95166 (O95166 whole entry, the tested form may be a part): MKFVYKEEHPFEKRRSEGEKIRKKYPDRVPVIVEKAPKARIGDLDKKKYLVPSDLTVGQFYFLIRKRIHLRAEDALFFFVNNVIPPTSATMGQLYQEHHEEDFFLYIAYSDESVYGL

Binder	median log2 fold change
B1	-0.0816
B2	0.107
B3	0.131
B4	0.223
B5	-0.246
B6	0.249
B7	-0.242
B8	0.374
B9	-0.0783
B10	0.135
B11	-0.185
B12	-0.337
B13	-0.0594
B14	0.121
B15	0.0381
B16	0.187
B17	-0.294
B18	0.171
B19	0.0801
B20	0.118
B21	0.183
B22	0.398
B23	0.0987
B24	0.0991
B25	-0.0585
B26	0.0879
B27	-0.791
B28	-0.139
B29	0.209
